Our source for the Kd values is patent US20120148575A1 (published 2012).

One test addresses T1, muFcγRIV (UniProt A0A0B4J1G0 21-203).
T1 chain: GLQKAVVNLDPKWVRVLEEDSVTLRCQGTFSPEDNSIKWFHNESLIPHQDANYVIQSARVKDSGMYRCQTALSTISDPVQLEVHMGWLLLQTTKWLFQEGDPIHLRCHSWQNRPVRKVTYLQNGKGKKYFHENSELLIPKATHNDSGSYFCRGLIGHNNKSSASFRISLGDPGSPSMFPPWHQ
In words: SPR. (Surface plasmon resonance follows binding to a sensor surface in real time, without labels.)

Test [1] concerns the target T2, recombinant human IL-5Rα, carrier-free soluble extracellular domain (R+D Systems) (human, UniProt Q01344 21-342).
T2 chain: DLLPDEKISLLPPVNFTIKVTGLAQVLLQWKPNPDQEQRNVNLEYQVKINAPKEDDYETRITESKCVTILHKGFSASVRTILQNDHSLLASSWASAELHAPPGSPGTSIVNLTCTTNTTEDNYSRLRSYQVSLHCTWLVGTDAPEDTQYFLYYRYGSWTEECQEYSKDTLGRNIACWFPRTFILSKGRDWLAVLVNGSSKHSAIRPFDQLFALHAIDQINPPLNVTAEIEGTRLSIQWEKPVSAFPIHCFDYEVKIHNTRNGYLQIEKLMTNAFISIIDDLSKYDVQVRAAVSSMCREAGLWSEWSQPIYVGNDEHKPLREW
In words: SPR; Experiment 0, capture format, instrument 3000.

Test [2] concerns the target T2, recombinant human IL-5Rα, carrier-free …. In words: SPR; Experiment 2, capture format, instrument T100, mean of 6.52/6.18.
For test [3] the target is unchanged. In words: SPR; Experiment 1, rhIL-5Ra-down format, instrument 3000, mean of 1.57/2.69.

B1: MEDI-563, humanized afucosylated IgG1 anti-IL-5R alpha chain monoclonal antibody (antibody)
heavy: EVQLVQSGAEVKKPGASVKVSCKASGYTFTSYVIHWVRQRPGQGLAWMGYINPYNDGTKYNERFKGKVTITSDRSTSTVYMELSSLRSEDTAVYLCGREGIRYYGLLGDYWGQGTLVTVSS[gap - human IgG1 constant region]
light: DIQMTQSPSSLSASVGDRVTITCGTSEDIINYLNWYQQKPGKAPKLLIYHTSRLQSGVPSRFSGSGSGTDFTLTISSLQPEDFATYYCQQGYTLPYTFGQGTKVEIKRTVAAPSVFIFPPSDEQLKSGTASVVCLLNNFYPREAKVQWKVDNALQSGNSQESVTEQDSKDSTYSLSSTLTLSKADYEKHKVYACEVTHQGLSSPVTKSFNRGEC
modifications: Fc N-glycan without fucose (afucosylated, Potelligent); the letters cannot carry it.
Broadly, the Kd is the constant that tells how readily two partners part at equilibrium. Consider B1, for which the Kd is 32 nM in the test with muFcγRIV, 2.9 nM in test [1], 6.35 nM in test [2] and 2.13 nM in test [3].
